# Experimental data from PubChem BioAssay AID1240 (Sanford-Burnham Center for Chemical Genomics, 2008).
# Out of some 50,000 compounds screened, about 800 (1.6%) showed an effect of 50% or more. This is one part of the list.
# Biological target: Bcl-2-like protein 10 (Homo sapiens) (UniProt Q9HD36)
# Test: TR3 peptide-Bcl-B binding displacers, biochemical primary FP assay, phenotype converters (AID 1240);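 further: 0% = Bcl-B with tracer peptide and DMSO and 100% = tracer peptide lacking Bcl-B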
# Settings: GST-Bcl-B / FITC-TR3 peptide fluorescence polarization; stronger effect = higher value; compound at 3.75 mg/L
# Chain of UniProt Q9HD36 (Q9HD36 whole entry, looked up): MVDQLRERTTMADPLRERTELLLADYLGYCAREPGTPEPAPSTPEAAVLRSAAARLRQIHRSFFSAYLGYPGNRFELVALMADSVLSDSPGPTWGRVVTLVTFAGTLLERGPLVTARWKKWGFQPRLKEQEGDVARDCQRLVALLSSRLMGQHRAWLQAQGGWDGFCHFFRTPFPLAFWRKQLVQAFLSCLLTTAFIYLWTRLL
row,Compound,displacement [%]
1,C=CCOc1nc(-c2cccnc2)nc2ccccc12,14.9
2,COc1cccc(N2C(=O)CC(NCc3ccc(S(N)(=O)=O)cc3)C2=O)c1 (centres undefined),-3
3,COc1ccc2nc(NC(=O)c3ccccc3O)sc2c1,0.4
4,Cc1ccc(OCCOc2ccc(/C=N/n3cnnc3)cc2)cc1,-8.3
5,CCOc1cc(/C=N/NC(=O)COc2cccc(C)c2)ccc1OC(=O)c1cccs1,-0.9
6,CN(C)c1ccc(/C=N/NC(=O)Cn2c3ccccc3c(=O)c3ccccc32)cc1[N+](=O)[O-],2.3
7,FC(F)(F)c1ccccc1CN1CCN(Cc2c[nH]c3ccccc23)CC1,-5.2
8,CCOC(=O)CSc1nnc(-c2ccccc2)c(-c2ccccc2)n1,-5.3
9,C=CCNC(=S)Nc1c(C)n(C)n(-c2ccccc2)c1=O,0.4
10,C1=C(c2ccc3c(c2)c2c4n3CCN(Cc3ccccc3)C4CCC2)C2CCN1CC2 (centres undefined),11.6
11,O=C1NC(=O)C(=Cc2cn(CCOc3ccc(Br)cc3)c3ccccc23)C(=O)N1,73.8
12,CCN(CC)c1ccc(C(=O)Nc2ccccc2F)cc1,10.5
13,O=C(N/N=C/c1cccc(O)c1)c1cncc(Br)c1,1.4
14,O=C1N=c2ccccc2=C1c1sc(Nc2ccc(O)cc2)nc1O,40.6
15,Cc1ccoc1C(=O)NCc1ccccc1,9.5
16,O=C1c2ccccc2C(=O)N1C/C=C/CN1C(=O)c2ccccc2C1=O,9
17,O=C(CSc1ncccn1)N/N=C/c1ccccc1O,-5
18,O=[N+]([O-])c1cnc(-c2ccccc2)nc1,-3.2
19,CCOC(=O)c1c(C)oc2cc(Br)c(OC(C)C(=O)OCC)cc12 (centres undefined),10.4
20,COc1ccc(CCNC(=O)c2cccc(F)c2)cc1,-16.9
21,O=C1NC(=S)NC(=O)C1=Cc1ccccc1OS(=O)(=O)c1ccc([N+](=O)[O-])cc1,-7.8
22,O=C(CCc1ccccc1)NNC(=O)c1ccc(Cl)cc1Cl,-14.9
23,O=c1c2cnn(-c3ccccc3)c2nc(-c2ccccc2)n1-c1cccc(Cl)c1,7.9

row,Compound,displacement [%]
1,O=C(NCc1ccccc1)c1ccncc1,-1.5
2,COc1cccc(C(=O)NC(NC(=S)Nc2cc(Cl)ccc2Cl)C(Cl)(Cl)Cl)c1 (centres undefined),14.6
3,CC1(C)Cc2ccccc2C(N/N=C/c2c(O)ccc3ccccc23)=N1,-1.7
4,COc1cc(-c2noc(-c3ccc(Br)cc3)n2)cc(OC)c1OC,11
5,COc1ccc(Br)cc1C=NN1CCN(Cc2ccccc2)CC1,-6
6,CC(C)(C)NC(=O)c1cc(NC(=O)c2cccs2)cc(NC(=O)c2cccs2)c1,-17.9
7,Cc1ccc(S(=O)(=O)/N=C2/C=C(S(=O)(=O)c3ccc(C)cc3)C(=O)c3ccccc32)cc1,5.6
8,CCOc1ccc(NC(=O)c2c(N)sc(-c3ccccc3)c2C)cc1,-0.3
9,Nc1sc2c(c1C(=O)Nc1cccc3ccccc13)CCC2,-11.2
10,Cc1ccccc1-c1nnc(NC(=O)Nc2ccc(Cl)c(Cl)c2)s1,0.3
11,COc1ccccc1C(=O)NC(NC(=O)c1ccccc1OC)c1ccc(F)cc1,-1.7
12,Cc1cc(C)cc(CSCC(=O)NCCSc2ccccc2)c1,-5.3
13,CCOC(=O)c1c(NC(=O)c2ccc(OC)cc2)sc(C(=O)Nc2ccccc2C(F)(F)F)c1C,-16.3
14,COc1ccccc1C1/C(=C(\O)c2ccc(Cl)cc2)C(=O)C(=O)N1CCCCCC(=O)O (centres undefined),3.4
15,O=C(CSc1nnc(SCC(=O)Nc2ccc(F)cc2)s1)Nc1ccc(F)cc1,9.8
16,Cc1ccccc1OCCOc1cccc(/C=N/n2cnnc2)c1,-10.8
17,C=CCc1cccc2cc(C(=O)Nc3ccc(C)cc3[N+](=O)[O-])c(=O)oc12,11.2
18,COc1ccccc1OCCCCNC(C)(C)C,7.5
19,Cc1ccc(NC(=O)C2CC(=O)N(c3ccc(Br)cc3)C2)cc1 (centres undefined),2.5
20,Cc1ccc(-c2nnc(-c3cccnc3)o2)cc1,0.7
21,COc1cccc(CC(CC(=O)Nc2cc(C)ccc2C)C(=O)O)c1 (centres undefined),-4.8
22,Nc1ccc(C(=O)/C=C/c2ccc(F)cc2)cc1,9.6
23,O=C(Nc1c(C(=O)N2CCCCC2)cnn1-c1ccccc1)c1ccc(Br)cc1,-11.9

row,Compound,displacement [%]
1,O=C(CCCN1C(=O)c2cccc3cccc(c23)C1=O)NCC1CCCO1 (centres undefined),0.9
2,CC(Oc1ccccc1)C(=O)Nc1cccc(C(F)(F)F)c1 (centres undefined),13.8
3,COc1ccccc1CNC(=O)CC1S/C(=N\N=C\c2ccccc2)NC1=O (centres undefined),1.2
4,O=C(Nc1ccc(Br)cn1)C(c1ccccc1)c1ccccc1,8
5,O=C(NCCCO)C(=O)NCC1CCCO1 (centres undefined),11.4
6,COc1ccc(NC(=O)Nc2cc(C(F)(F)F)cc(C(F)(F)F)c2)cc1OC,-14.8
7,C/C(=N\NC(=O)c1[nH]nc2c1CCc1ccccc1-2)c1ccccc1O,-6.1
8,Cc1cccc(N2C(=O)NC(=O)/C(=C/c3ccc(Br)o3)C2=O)c1,26.7
9,CC(C)N(Cc1ccccc1)C(=O)/C=C/c1ccccc1,-10.9
10,CCCOc1ccc(C2C(C#N)=C(C)NC3=C2C(=O)CC(C)(C)C3)cc1OC (centres undefined),-6.4
11,Cc1ccc(-c2nc3ncccc3o2)cc1NC(=O)/C=C/c1ccco1,116
12,COC(=O)c1cc(-c2cccs2)nc2ccc(Br)cc12,104
13,COc1ccccc1OCCNc1cc(N2CCOCC2)ccc1[N+](=O)[O-],4.4
14,COc1ccc(C2C3=C(CC(C)(C)CC3=O)OC3=C2C(=O)CC(C)(C)C3)cc1Br,10.8
15,CCN(CC)C(=O)c1cccc(-c2ccc(OC(C)=O)cc2)c1,6.3
16,O=C(c1ccccc1F)N1CCN(c2ccc([N+](=O)[O-])c(NCc3ccccc3)c2)CC1,8.2
17,CC1(C(=O)NNC(=O)c2ccccc2)CC2C=CC1C2 (centres undefined),11
18,O=c1nc(-c2ccccc2)c2cc(SC(F)(F)F)ccc2[nH]1,9.7
19,COc1ccc(-c2noc(-c3cccc([N+](=O)[O-])c3C)n2)cc1,1.5
20,Cc1cc(Cl)ccc1OC(C)C(=O)NCCCn1ccnc1 (centres undefined),-1.2
21,O=[N+]([O-])c1ccccc1S(=O)(=O)Nc1ccc2c(c1)OCCO2,0.8
22,CC1(C)CC(=O)C(C(C2=C(O)CC(C)(C)CC2=O)c2ccc(OCc3ccccc3)cc2)C(=O)C1 (centres undefined),-4.2
23,CCOc1cccc2c1N(C(=O)c1ccc(OC)cc1)C(C)(C)C(=S)C2=C1SC(C(=O)OC)=C(C(=O)OC)S1,9.6
